In the antibiotic and cytotoxicity screens of Wong et al. (2023):
The list shows a part of the results.

Test system: HepG2
Assay: cytotoxicity call (relative viability < 0.9)
Settings: 10 µM

**Q.** C[C@H](CO)N1C[C@H](C)[C@@H](CN(C)Cc2ccc(-c3ccccc3)cc2)Oc2ccc(NC(=O)Nc3ccc4c(c3)OCO4)cc2C1=O was tested. Which cytotoxicity call did it give?
**A.** inactive

**Q.** Which cytotoxicity call does the source give for C[C@@H]1CCCCO[C@@H](CN(C)C(=O)CCC(F)(F)F)[C@@H](C)CN([C@@H](C)CO)C(=O)c2cc(NC(=O)CCC(F)(F)F)ccc2O1 here?
**A.** inactive

**Q.** How did the cytotoxicity call turn out when O=C(C[C@@H]1CC=CCCC(=O)OCCNC1=O)NCCO was run?
**A.** inactive

**Q.** Which cytotoxicity call does the source give for O=C(O)C(S)C(S)C(=O)O (configuration not stated) here?
**A.** inactive

**Q.** Which cytotoxicity call does the source give for C[C@@H]1CN([C@@H](C)CO)C(=O)Cc2cc(NC(=O)CCCN(C)C)ccc2O[C@@H]1CN(C)S(=O)(=O)c1ccc(F)cc1 here?
**A.** inactive

**Q.** Which cytotoxicity call does the source give for C[C@@H]1CCCCO[C@H](CN(C)Cc2ccc(Cl)c(Cl)c2)[C@@H](C)CN([C@H](C)CO)C(=O)c2cc(NC(=O)c3ccncc3)ccc2O1 here?
**A.** inactive

**Q.** With Cc1noc(C)c1S(=O)(=O)N(C)C[C@@H]1OCCCC[C@@H](C)Oc2ccc(NC(=O)Nc3ccc(C(F)(F)F)cc3)cc2C(=O)N([C@H](C)CO)C[C@@H]1C as the compound, how does the cytotoxicity call read?
**A.** inactive

**Q.** Which cytotoxicity call does the source give for N#Cc1ccc(-c2cccs2)nc1 here?
**A.** inactive

**Q.** With CC(C)NC(=O)N(C)C[C@H]1OCCCC[C@@H](C)Oc2ccc(NC(=O)Nc3ccccc3)cc2C(=O)N([C@@H](C)CO)C[C@H]1C as the compound, how does the cytotoxicity call read?
**A.** inactive

**Q.** Which cytotoxicity call does the source give for C[C@@H]1CN([C@H](C)CO)C(=O)Cc2cc(NC(=O)Nc3ccc(F)cc3)ccc2O[C@@H]1CN(C)Cc1ccc(C(F)(F)F)cc1 here?
**A.** active

**Q.** For COc1ccc(NC(=O)N(C)C[C@@H]2Oc3ncc(C#CCN(C)C)cc3C(=O)N([C@@H](C)CO)C[C@H]2C)cc1, which cytotoxicity call is on record?
**A.** inactive

**Q.** Which cytotoxicity call does the source give for CC(C)NC(=O)N(C)C[C@H]1OCCCC[C@@H](C)Oc2ccc(NS(C)(=O)=O)cc2C(=O)N([C@@H](C)CO)C[C@@H]1C here?
**A.** inactive
